# Assay results from PMC12136788.
# The list shows a part of the results.
# T1: UNK ZnF1-6 (called full-length) (human, UniProt Q9C0B0 30-357)
# T1 sequence: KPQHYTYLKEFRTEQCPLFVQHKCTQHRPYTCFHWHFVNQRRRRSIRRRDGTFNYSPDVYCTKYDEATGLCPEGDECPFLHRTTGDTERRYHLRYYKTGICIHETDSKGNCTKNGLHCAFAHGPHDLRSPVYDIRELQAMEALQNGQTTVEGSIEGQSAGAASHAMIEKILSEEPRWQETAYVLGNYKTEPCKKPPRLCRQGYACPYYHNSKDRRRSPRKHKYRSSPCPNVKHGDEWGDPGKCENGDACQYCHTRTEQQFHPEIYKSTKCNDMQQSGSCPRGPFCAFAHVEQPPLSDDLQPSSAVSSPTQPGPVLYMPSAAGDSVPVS
# B1: chr4:150265445:150265561:-|3pUTR|ENSG00000198589|unk|total|mutant (ssRNA)
# RNA: GGGAGUUCUACAGUCCGACGAUCGGAUCCGCAAAGCAGAAAACUGGCUGCUGGGUUCUGCCGUUUUAAAAAAUCUAUAUUUUCCGUCAUAAUGAGAAGUCUAUUUUCACCAAUUAUGGAAACAUACAGUGGAGCAAGUAAACCCAACAGAGGAUUGAGCAUCA
# B2: ENSG00000107863:be:win_5701|CDS|ENSG00000107863|bound_else_gene|NA|bound_elsewhere_windowed (ssRNA)
# RNA: GGGAGUUCUACAGUCCGACGAUCAGCACCUUGGCUUCAACAAACAGGCCCCUUCUUUCCAUACCACCACAGUCACCUGACCAAAUAAACGGAGAAAGCUUCCAGAACGUGAGCAAAAAUGCUAGUUCUGCAGCGAAUGCCCAACAACAGAGGAUUGAGCAUCA
# B3: chr2:176131361:176131462:+|CDS|ENSG00000175879|unk|total|mutant (ssRNA)
# RNA: GGGAGUUCUACAGUCCGACGAUCGGAAUUUCUUUUUAACCCCUAUCUGACCAGGAAAAGAAGAAUCGAGGUUUCCCACGCCCCCGCCCUCACCGAGAGACAGGUAAAAAUCUGGUUCCAGAACAGGAGAAUGAAAUGGAAAAACAACAGAGGAUUGAGCAUCA
# B4: chr3:107805913:107806014:+|3pUTR|ENSG00000114439|msi1_unk|FALSE|overlapping (ssRNA)
# RNA: GGGAGUUCUACAGUCCGACGAUCUACAUGGAGAUUUAAGUUUAAGAUGGUUUAUAUAAUAGGUUAUACCUACAUUUAUAUUGUAGAAUAAAUAUUAAAAAGCCUGUUCCAGAGACUCCCAAGCAGCCUGGGCAGGCAGAUGUACAACAGAGGAUUGAGCAUCA
# B5: chr2:171983412:171983537:+|3pUTR|ENSG00000128708|unk|total|mutant (ssRNA)
# RNA: GGGAGUUCUACAGUCCGACGAUCUGAUGACUUUAAUUUUAAAAUCUUGUGACAUUUUGCUUAUACUAAAAGUUAUCUAUCUUCCGUUGAAUAUUUUCUUUUGGAGAGAUUGUAUAUUUUAAAAUACUGUUCCGAGUUUAUGAGCAACAGAGGAUUGAGCAUCA
# B6: chr1:67003359:67003460:-|3pUTR|ENSG00000116704|msi1|total|mutant (ssRNA)
# RNA: GGGAGUUCUACAGUCCGACGAUCACUCAAAAGCCGCAAAUCUGUAAAUUGGAUUAAGAACACCUGCCCUACCUACCCGGCAACCGUGUGAAUCCAAAUGCUGCAAUGUGAGAUGAGGUACAAGUAAAGAGCUGUGUUUUGUAACAACAGAGGAUUGAGCAUCA
# B7: chr1:117368288:117368465:+|CDS|ENSG00000198162|unk|FALSE|unique (ssRNA)
# RNA: GGGAGUUCUACAGUCCGACGAUCUUUUGGGGCAUUCUUUUUCCUUCCAGACUCUUCAAAACACAAACGCUUUGAUUUGGGUUUAGAAGAUGUGUUAAUUCCACAUGUAGAUGCCGGUAAAGGGGCUAAAAACCCCGGAGUCUUCAACAGAGGAUUGAGCAUCA
# B8: chr1:52911722:52912021:-|three_prime_utr|ENSG00000121310|control|control|control (ssRNA)
# RNA: GGGAGUUCUACAGUCCGACGAUCGGUUGGGAAAAUUGAGGCCUGCCUGAGUGUGUGACUUGUGGCAAGUCACUCUGGUCAUCUAGGGCAGAGGCUCCCCAGAUCCCAGGCCUCCUGCCUCCAGUCCCCAGCCCGCAGCCCAGGCAACAGAGGAUUGAGCAUCA
# B9: chr1:45693489:45693605:+|CDS|ENSG00000159596|unk|total|mutant (ssRNA)
# RNA: GGGAGUUCUACAGUCCGACGAUCAAUCCCCUUCGUUGCUCCACCACUGGUCAUGCUGAUGACAAAAACUUAUAUUCCCAUAUCCGCUUUUACUCAGAUGGCUUAUGGAGCCAGUUUCCUAUCUUUCUUGGGUGGGAUCAGAUGCAACAGAGGAUUGAGCAUCA
# B10: chr1:37566712:37566813:+|3pUTR|ENSG00000163879|unk|total|mutant (ssRNA)
# RNA: GGGAGUUCUACAGUCCGACGAUCGCUUUAUUUCCCCCGCACUGGUGAAGGGCUUCAACUGUCAAACCUCAGAACAAAUGCAUCCGGGCCUCCGAAAUGUCAAUGGGGCAGGAAGAAAACACAAUUUCUAACUGCCUGUUUUUGCAACAGAGGAUUGAGCAUCA
# B11: chr1:150220393:150220494:-|3pUTR|ENSG00000143401|msi1_unk|total|mutant (ssRNA)
# RNA: GGGAGUUCUACAGUCCGACGAUCAUUGUAUGCCGAGAAAAAUUUUCAUUGACUCCCAUUGUGGAAUUCCCCCGCAAUUUAUUCCGACUUAAUUUUUUAAAUUCAAGCUUACUGUAUCCGUCAUUUUCCGCCCAUAAUUAAAACCAACAGAGGAUUGAGCAUCA
# B12: chr14:21351797:21351898:-|3pUTR|ENSG00000092201|msi1|total|mutant (ssRNA)
# RNA: GGGAGUUCUACAGUCCGACGAUCGAGGAAGGCUCAAAGGAGUCAACAUUUAUAUCUGGAAGGGACAAGUCAUGCCUUGGGCCCCGAAUACCCUGAUGAGAAAAGAGAAGAGGAAGGGAGGCCAUAUCUACAACACAGCCUCUCCAACAGAGGAUUGAGCAUCA
# B13: chr5:159157431:159157536:-|3pUTR|ENSG00000145860|unk|total|mutant (ssRNA)
# RNA: GGGAGUUCUACAGUCCGACGAUCCAAAAAGUGUUUUUCAGACCUCGGUAUUCCUAAUGUGGGAUGUGACUUUAUUUUAUUUUCCGCCGCAAAUUUGGAUGCCGACUGACAGACACCGCUGAAUGUCUUAAUAAAUUUAAAUUUCAACAGAGGAUUGAGCAUCA
# B14: ENSG00000198589:be:win_6451|CDS|ENSG00000198589|bound_else_gene|NA|bound_elsewhere_windowed (ssRNA)
# RNA: GGGAGUUCUACAGUCCGACGAUCGCUGUGAUGUUCAACUUCCCAGACCCUGCAACAGUAAAGAAAGUGGUUAACUAUCUACCUCGUGUUGGCGUUGGAACAAGUUUUGGAUUGCCUCAAACCAGACGUAUUUCAUUAGCUAGUCAACAGAGGAUUGAGCAUCA
# B15: chr8:140515610:140515764:+|3pUTR|ENSG00000104472|unk|FALSE|unique (ssRNA)
# RNA: GGGAGUUCUACAGUCCGACGAUCUUUUGGAAUCAGUUCUUAUAAACAGCUCGAUUCAGUUUUAGCUAAAUUUAUAGUUUAGGUAGUAUGUUACAUUUGAAUUUUUGUCUUAAGAAAAGUUGACUGUUCAGAUAUUUUUCUACUCAACAGAGGAUUGAGCAUCA
# B16: chr3:196828865:196828966:+|3pUTR|ENSG00000180370|msi1|total|mutant (ssRNA)
# RNA: GGGAGUUCUACAGUCCGACGAUCUGCUCCUUUUGAGUUGCUUUUGCGUUUCUCAUGCCCCGGCAAGUGUAACCGAAAUUAUGCCGCUCCUUAUGUUGGCAAAGGAGCUCUAUACCGUUUCACUUUGUAUAAAAGUCCGGACCACAACAGAGGAUUGAGCAUCA
# B17: chr1:93888438:93888539:-|3pUTR|ENSG00000023909|msi1|total|mutant (ssRNA)
# RNA: GGGAGUUCUACAGUCCGACGAUCAGAUAUUUUUCCUGUCAUUGAUGAGAUAUAUCAGAGUAACUGGAGCCGCUGGGAUUUACCCGCCGUGUAAAUAAAAUUCACUCUUCAAUACAUGAAUGGAAACUUAAAUUUUUUUUUAUGCAACAGAGGAUUGAGCAUCA
# B18: chr8:22006149:22006250:+|3pUTR|ENSG00000130227|msi1|FALSE|unique (ssRNA)
# RNA: GGGAGUUCUACAGUCCGACGAUCGAAUGUAUGAACUGGAGGAAGUUACUACAGUGGAAGGGUUCUUAAUAACAAGGUCUACCUAGCAUGAAGUAUUUAACAUUCUCCCAUCCCUUAAAAAAUAUACAUUUUUAUAAAAUGAAACAACAGAGGAUUGAGCAUCA
# B19: chr4:113382420:113382521:+|3pUTR|ENSG00000145362|msi1|FALSE|bound_elsewhere (ssRNA)
# RNA: GGGAGUUCUACAGUCCGACGAUCUCUUCAGGUCUUUAGAUCUUGGACAAGUUGGCAGGGUAUUUUAAAAGCUAUAACUACUGUAGUUUUCCAGUUUUCAUUGCUGCUUUAGCAAACCACGCUGUCUUACAGUGGUACUUUCUUCAACAGAGGAUUGAGCAUCA
# B20: chr8:41262982:41263083:-|3pUTR|ENSG00000104332|msi1|FALSE|unique (ssRNA)
# RNA: GGGAGUUCUACAGUCCGACGAUCCAACCGGGCCCUCUCUCUGCGGCAGAGUCCUUAGUGGAGGGGUUUACCUGGAACAUUAGUAGUUACCACAGAAUACGGAAGAGCAGGUGACUGUGCUGUGCAGCUCUCUAAAUGGGAAUUCAACAGAGGAUUGAGCAUCA
# B21: chr4:109463114:109463221:+|CDS|ENSG00000138802|unk|total|mutant (ssRNA)
# RNA: GGGAGUUCUACAGUCCGACGAUCAGGAGCACAGCAGUUGUACAGCAGGGGUCCUCCUGCCCCUCAUAUUGUGGGAUCCACUCCCGGAUCUUUCCAAGGUGCUGCAUCGUCAGCAUCCCAUUUGCAUACGAGUGCCUCCCAACCCAACAGAGGAUUGAGCAUCA
# B22: chr4:67617988:67618115:-|3pUTR|ENSG00000033178|unk|total|mutant (ssRNA)
# RNA: GGGAGUUCUACAGUCCGACGAUCAAAUGCCGAAUGUUAAAAAUUAUUGCCCGGGCCGUCUUUUUUUUUUCCAGAAACCUAAUCCGGGUAUUAAAUUUUGUGUUUUUUUUGUUUUUUUUUUUUAAACAGAAGCAUGUUAUUUCACAACAGAGGAUUGAGCAUCA
# Molecular target: T1, UNK ZnF1-6 (called full-length)
# Experiment: nsRBNS (natural sequence RNA bind-n-seq); RBNS binding buffer (assumed for nsRBNS): 25 mM Tris pH 7.5, 150 mM KCl, 3 mM MgCl2, 0.01% Triton X-100, 500 ug/ml BSA, 20 U/ml SUPERase-In, 4 C; UNK is unkempt and MSI1 is Musashi-1; names of the RNAs are library labels; protein concentration not given here; high values mean tight binding
row,Binder,binding signal [enrichment R]
1,B1,0.438
2,B2,0.589
3,B3,0.829
4,B4,1.89
5,B5,0.599
6,B6,0.544
7,B7,0.338
8,B8,0.779
9,B9,0.584
10,B10,0.542
11,B11,2.56
12,B12,1.92
13,B13,0.813
14,B14,0.809
15,B15,6.28
16,B16,0.638
17,B17,0.609
18,B18,0.757
19,B19,0.392
20,B20,1.22
21,B21,0.738
22,B22,0.765
